Patent US20240076392A1, “ANTI-CD123 BINDING MOLECULES AND USES THEREOF” (IGM Biosciences, Inc., priority 2021, published 2024)

B1: h32716-1-1 IgM: humanized anti-CD123×CD3 bispecific pentameric IgM, VH/VL SEQ ID NO: 76/79, J chain with CD3-binding scFv (SEQ ID NO: 84) (antibody)
VH: QVQLVQSGAEVKKPGSSVKVSCKASGYIFTNYGMNWVRQAPGQGLEWMGWINTYTGESTYSADFKGRVTITADESTSTAYMELSSLRSEDTAVYYCARSGGYDPMDYWGQGTLVTVSS
VL: DIVMTQSPDSLAVSLGERATINCRASESVDNYGNTFMHWYQQKPGQPPKLLIYRASNLESGVPDRFSGSGSGTDFTLTISSLQAEDVAVYYCQQSNEDPPTFGQGTRLEIK
chain: EVQLLESGGGLVQPGGSLRLSCAASGFTFDTYAMNWVRQAPGKGLEWVARIRSKYNNYATYYADSVKDRFTISRDDSKSTLYLQMESLRAEDTAVYYCVRHANFGAGYVSWFAHWGQGTLVTVSSGGGGSGGGGSGGGGSQTVVTQEPSLSVSPGGTVTLTCGSSTGAVTTSNYANWVQQTPGQAPRGLIGGTDKRAPGVPDRFSGSLLGDKAALTITGAQAEDEADYYCALWYSNHWVFGGGTKLTVLGGGGSGGGGSGGGGS[about 150 residues not printed]
modifications: IgM constant regions, J chain
B2: 32716 IgM: parental 32716 anti-CD123×CD3 bispecific pentameric IgM with modified J chain comprising CD3-binding scFv (antibody)
VH: QIQLVQSGPELKKPGETVKISCKASGYIFTNYGMNWVKQAPGKSFKWMGWINTYTGESTYSADFKGRFAFSLETSASTAYLHINDLKNEDTATYFCARSGGYDPMDYWGQGTSVTVSS
VL: DIVLTQSPASLAVSLGQRATISCRASESVDNYGNTFMHWYQQKPGQPPKLLIYRASNLESGIPARFSGSGSRTDFTLTINPVEADDVATYYCQQSNEDPPTFGAGTKLELK
J-chain: EVQLLESGGGLVQPGGSLRLSCAASGFTFDTYAMNWVRQAPGKGLEWVARIRSKYNNYATYYADSVKDRFTISRDDSKSTLYLQMESLRAEDTAVYYCVRHANFGAGYVSWFAHWGQGTLVTVSSGGGGSGGGGSGGGGSQTVVTQEPSLSVSPGGTVTLTCGSSTGAVTTSNYANWVQQTPGQAPRGLIGGTDKRAPGVPDRFSGSLLGDKAALTITGAQAEDEADYYCALWYSNHWVFGGGTKLTVLGGGGSGGGGSGGGGS[about 150 residues not printed]
B3: h32716-4-2 IgM: humanized anti-CD123×CD3 bispecific pentameric IgM, VH/VL SEQ ID NO: 80/83, J chain with CD3-binding scFv (SEQ ID NO: 84) (antibody)
VH: QVQLVQSGPELKKPGASVKVSCKASGYIFTNYGMNWVRQAPGQGLEWMGWINTYTGESTYSADFKGRFVFSLDTSVSTAYLQISSLKAEDTAVYYCARSGGYDPMDYWGQGTLVTVSS
VL: DIQMTQSPSSLSASVGDRVTITCRASESVDNYGNTFMHWYQQKPGKAPKLLIYRASNLESGVPSRFSGSGSGTDFTFTISSLQPEDIATYYCQQSNEDPPTFGQGTKVEIK
chain: EVQLLESGGGLVQPGGSLRLSCAASGFTFDTYAMNWVRQAPGKGLEWVARIRSKYNNYATYYADSVKDRFTISRDDSKSTLYLQMESLRAEDTAVYYCVRHANFGAGYVSWFAHWGQGTLVTVSSGGGGSGGGGSGGGGSQTVVTQEPSLSVSPGGTVTLTCGSSTGAVTTSNYANWVQQTPGQAPRGLIGGTDKRAPGVPDRFSGSLLGDKAALTITGAQAEDEADYYCALWYSNHWVFGGGTKLTVLGGGGSGGGGSGGGGS[about 150 residues not printed]
modifications: IgM constant regions, J chain

Assays:
[1] = Pharmacokinetics in Balb/c mice; type: in vivo, mouse; details: 5 mg/kg intravenous bolus
Description: Pharmacokinetic parameters were measured for various CD123×CD3 IgM antibodies in an in vivo mouse model as follows. Balb/c mice were injected with 5 mg/kg of h32716, h32716-4^−2, or h32716-1-1 via intravenous bolus administration. Blood samples were collected at 8 time points total for each antibody, with 2 mice per time point. A sandwich ELISA assay was used to measure the plasma concentration of each antibody at each time point. Quality metrics were verified on all ELISAs, and PK parameters, including t½, clearance (CL), area under the concentration curve (AUC), and maximum concentration (Cmax) were derived using nonlinear curve fitting techniques (WinNonLin, Phoenix Software).

[2] = test system: IFNγ, IL-6, IL-10 in MV4-11 cell TDCC media; experiment: Cytokine release (MSD) in MV4-11 / PBMC TDCC assay; type: cell-based, human; details: 48 and 72 hours TDCC; at concentrations that resulted in equal levels of cell killing
Description: MV4-11 leukemia cells were labeled with a PKH26 red fluorescent tag using the PKH26 Red Fluorescent Cell Linker Kit (Sigma-Aldrich, Cat #MINI26-1kt) per manufacturer's instructions. Briefly, 5×10^−6 MV4-11 cells were washed with serum free RPMI-1640 medium (Gibco, REF22400-071). After centrifugation, 0.25 ml of diluent C was added to the cell pellet and was gently pipetted to resuspend. […] 0.25 ml of 2× Dye Solution was rapidly added to 0.25 ml of 2× Cell Suspension, and the sample was immediately mixed. The sample was incubated 5 min and 0.5 ml of heat inactivated FBS was added to stop the staining. The cells were centrifuged and resuspended in culture medium to make final concentration of 2.5×10^−5/ml. […]
Cytokine levels from supernatants harvested from MV4-11 cell TDCC assay at 48 and 72 hours were measured with MSD Proinflammatory Panel 1 (human) Kit (V-PLEX, Cat #K15049D-2). […] 150 uL of 2× Read Buffer T was added to each well of the plate and the plate was analyzed on an MSD instrument.
The calibration curves used to calculate analyte concentrations were established by fitting the signals from calibrators to a 4-parameter logistic model with a 1/Y^2 weighting. Analyte concentrations were determined from the ECL signals by back-fitting to the calibration curve. […]

[3] = target: T1, recombinant human CD123 protein (CD123, Fc-Fusion (IgG1) Avi-Tag, Biotin-Labeled) (Homo sapiens, UniProt P26951); experiment: Biolayer interferometry (Octet) binding kinetics of CD123×CD3 IgM antibodies; details: CD123×CD3 IgM format; Octet BLI
T1 construct: purchased BPS Bioscience 100068^−2 (so in the source)
T1 sequence (P26951 19-305 limits assumed): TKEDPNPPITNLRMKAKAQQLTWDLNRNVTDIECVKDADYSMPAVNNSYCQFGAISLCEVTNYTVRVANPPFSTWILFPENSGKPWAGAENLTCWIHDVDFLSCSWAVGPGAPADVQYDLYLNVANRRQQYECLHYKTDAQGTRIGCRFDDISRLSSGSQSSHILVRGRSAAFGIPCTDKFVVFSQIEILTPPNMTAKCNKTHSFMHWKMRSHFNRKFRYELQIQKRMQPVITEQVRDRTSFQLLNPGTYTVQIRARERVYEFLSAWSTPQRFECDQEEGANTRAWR
Description: The binding affinities of parental 32716 IgG and humanized variants with recombinant human CD123 protein (CD123)-His Acrobio #ILA-H52H6) were determined by BLI on an Octet-384 (Sartorius/Fortebio, NY, USA) using Anti-penta His biosensors (Sartorius). PBST (1×PBS+1% BSA+0.05% Tween-20) buffer was used as Antibody/CD123 dilution and sensor hydration buffer. The experiment followed a five-step sequential assay at 24° C. First, biosensors were hydrated for 10 minutes. Samples and buffer were applied in 384-well plate. After initial baseline for 60 s, sensors were loaded with 7 nM hu IL-3R alpha (CD123)-His Acrobio #ILA-H52H6. The biosensors were dipped into PBST for 20 s to reach baseline, then incubated for 420 s with 2-fold serial diluted anti-CD123 antibodies starting at 10 nM for association, followed by 900 s in PBST for dissociation. Results were analyzed by ForteBio Data Analysis software 9.0 using 1:1 global fit model.
The binding affinities of CD123×CD3 IgM antibodies 32716 IgM, h32716-1-1 IgM, and h32716-4^−2 IgM with recombinant human CD123 protein (CD123, Fc-Fusion (IgG1) Avi-Tag, Biotin-Labeled, BPS Bioscience Cat.100068^−2) were determined by BLI on an Octet-384 (Sartorius/Fortebio, NY, USA) using Anti-human Fc (AFC) biosensors (Sartorius Cat #185064) as described in Example 2.

[4] = test system: KG1a tumor cells; experiment: T cell-directed killing (TDCC) co-culture assay, KG1a; type: cell-based, human; details: T cells E:T 7:1, 72 hours
Description: (§1) 7×10^3 tumor cells KG1a and MV4-11 (expressing firefly luciferase) were co-cultured with T cells at 7:1 Effector to target (E:T) ratios in the presence of serial dilutions of anti-CD123×CD3 IgM antibodies in 100 μL total volume of AIM-V cell culture medium (GIBCO, #12055091) supplemented with 3% heat-inactivated fetal bovine serum (FBS, HyClone, #SH3007103HI) per well on a 96 round bottom tissue culture plate. After 72 hours of incubation at 37° C. in a 5% C02 incubator, 50 μl of supernatant was removed and frozen at −80° C. for later cytokine release analysis. 50 μl of luciferase substrate e.g., ONE-Glo EX Luciferase Assay System, Promega was added to the wells. The plates were shaken briefly to mix the reagents, and luciferase luminescent signal was measured on an EnVision plate reader (Perkin-Elmer). The data was then analyzed with GraphPad Prism to determine the EC50. Representative dose response curves for KG1a and MV411 are shown in FIG. 7A-B and max killing percentage and EC50 values are shown in Table 6.

[5] = test system: MV411 (MV4-11) tumor cells; experiment: T cell-directed killing (TDCC) co-culture assay, MV411; type: cell-based, human; details: T cells E:T 7:1, 72 hours
Description: as §1

| Molecule | % Extrap [1] [%] | AUCinf [1] [µg·days/mL] | CL [1] [mL/min/kg] | Cmax [1] [µg/mL] | Vss [1] [L/kg] | t1/2 [1] [h] | production of cytokines (IFNγ, IL-6, IL-10) compared to CD123×CD3 IgG #1 [2] | kdis [3] [s⁻¹] | kon [3] [M⁻¹ s⁻¹] | EC50 [4] [nM] | max killing (%) [4] [%] | max killing (%) [5] [%] |
| --- | --- | --- | --- | --- | --- | --- | --- | --- | --- | --- | --- | --- |
| B1 | 1.02 | 30.8 | 0.112 | 76.2 | 0.1033 | 10.5 | much lower levels of cytokines | <1e-07 | 3.9e+06 |  |  |  |
| B2 | 0.21 | 38.6 | 0.08993 | 100.5 | 0.2987 | 6.9 |  | <1e-07 | 4.1e+06 | 0.0134 | 99.03 | 100.2 |
| B3 | 2.55 | 29.1 | 0.1192 | 61.9 | 0.1266 | 15.5 |  | 1.69e-05 | 3.82e+06 | 0.0175 | 97.84 | 100 |
